# Data reported in the supplement of paper PMC8728848.
# The other results are listed elsewhere or left out.
# B1: Tamarinin (protein)
# chain: CDDSARAGNIVVYWGQGGSDNSEGSLKEACKSGHYNMIVLQQLIVYDDGRDPDLNLGAHCSDCTKLEEQIKYCQNKDIKILLQIGQVVPTQEDVKDVTKNLSEYLLKNFFSGKSGPLGEVYLNGIDIASVPEGNNLKFDELVEALNDSSTERRIYLSASPLCVYPDYYLNKAIQTEKLDFLFVQFFYQNPCIYTEGNPENLFEAMKTWTKNVPESMIFMALPATPNLDGYIPPRVLNKEILPAVSEASNFAGVMIFDRYFDRFRKYSSKIK
# Legend:
# Assay in all cases: glycan array binding signal (z-score within array); higher = stronger binding
# Conditions in all cases: glycan notation: IUPAC condensed, linker removed
# [1] = target: Gal(b1-4)GlcNAc(b1-3)Gal(b1-4)Glc
# Summary of the method: (§1)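 From the Consortium for Functional Glycomics database, 3228 arrays were curated, keeping only those whose protein sequence was available. Binding is given as a within-array Z-score averaged across arrays sharing a protein sequence and across linkers. Negative Z-scores can be read as non-binding.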
# [2] = target: Gal(b1-4)GlcNAc(b1-3)Gal(b1-4)GlcNAc
# Summary of the method: as §1
# [3] = target: Gal(b1-4)GlcNAc(b1-3)Gal(b1-4)GlcNAc(b1-2)Man(a1-3)[Gal(b1-4)GlcNAc(b1-3)Gal(b1-4)GlcNAc(b1-2)Man(a1-6)]Man(b1-4)GlcNAc(b1-4)GlcNAc
# Summary of the method: as §1
# [4] = target: Gal(b1-4)GlcNAc(b1-3)Gal(b1-4)GlcNAc(b1-2)Man(a1-3)[Gal(b1-4)GlcNAc(b1-3)Gal(b1-4)GlcNAc(b1-2)Man(a1-6)]Man(b1-4)GlcNAc(b1-4)[Fuc(a1-6)]GlcNAc
# Summary of the method: as §1
# [5] = target: Gal(b1-4)GlcNAc(b1-3)Gal(b1-4)GlcNAc(b1-2)[Gal(b1-4)GlcNAc(b1-3)Gal(b1-4)GlcNAc(b1-6)]Man(a1-6)[Gal(b1-4)GlcNAc(b1-3)Gal(b1-4)GlcNAc(b1-2)Man(a1-3)]Man(b1-4)GlcNAc(b1-4)GlcNAc
# Summary of the method: as §1
# [6] = target: Gal(b1-4)GlcNAc(b1-3)Gal(b1-4)GlcNAc(b1-2)[Gal(b1-4)GlcNAc(b1-3)Gal(b1-4)GlcNAc(b1-6)]Man(a1-6)[Gal(b1-4)GlcNAc(b1-3)Gal(b1-4)GlcNAc(b1-2)Man(a1-3)]Man(b1-4)GlcNAc(b1-4)[Fuc(a1-6)]GlcNAc
# Summary of the method: as §1
# [7] = target: Gal(b1-4)GlcNAc(b1-3)Gal(b1-4)GlcNAc(b1-3)Gal(b1-4)GlcNAc
# Summary of the method: as §1
# [8] = target: Gal(b1-4)GlcNAc(b1-3)Gal(b1-4)GlcNAc(b1-3)Gal(b1-4)GlcNAc(b1-2)Man(a1-3)[Gal(b1-4)GlcNAc(b1-3)Gal(b1-4)GlcNAc(b1-3)Gal(b1-4)GlcNAc(b1-2)Man(a1-6)]Man(b1-4)GlcNAc(b1-4)GlcNAc
# Summary of the method: as §1
# [9] = target: Gal(b1-4)GlcNAc(b1-3)Gal(b1-4)GlcNAc(b1-3)Gal(b1-4)GlcNAc(b1-2)Man(a1-3)[Gal(b1-4)GlcNAc(b1-3)Gal(b1-4)GlcNAc(b1-3)Gal(b1-4)GlcNAc(b1-2)Man(a1-6)]Man(b1-4)GlcNAc(b1-4)[Fuc(a1-6)]GlcNAc
# Summary of the method: as §1
# [10] = target: Gal(b1-4)GlcNAc(b1-3)Gal(b1-4)GlcNAc(b1-3)Gal(b1-4)GlcNAc(b1-2)[Gal(b1-4)GlcNAc(b1-3)Gal(b1-4)GlcNAc(b1-3)Gal(b1-4)GlcNAc(b1-6)]Man(a1-6)[Gal(b1-4)GlcNAc(b1-3)Gal(b1-4)GlcNAc(b1-3)Gal(b1-4)GlcNAc(b1-2)Man(a1-3)]Man(b1-4)GlcNAc(b1-4)[Fuc(a1-6)]GlcNAc
# Summary of the method: as §1
# [11] = target: Gal(b1-4)GlcNAc(b1-3)Gal(b1-4)GlcNAc(b1-3)Gal(b1-4)GlcNAc(b1-3)Gal(b1-4)GlcNAc(b1-2)Man(a1-3)[Gal(b1-4)GlcNAc(b1-3)Gal(b1-4)GlcNAc(b1-3)Gal(b1-4)GlcNAc(b1-3)Gal(b1-4)GlcNAc(b1-2)Man(a1-6)]Man(b1-4)GlcNAc(b1-4)GlcNAc
# Summary of the method: as §1
# [12] = target: Gal(b1-4)GlcNAc(b1-3)Gal(b1-4)GlcNAc(b1-3)Gal(b1-4)GlcNAc(b1-3)Gal(b1-4)GlcNAc(b1-2)Man(a1-3)[Gal(b1-4)GlcNAc(b1-3)Gal(b1-4)GlcNAc(b1-3)Gal(b1-4)GlcNAc(b1-3)Gal(b1-4)GlcNAc(b1-2)Man(a1-6)]Man(b1-4)GlcNAc(b1-4)[Fuc(a1-6)]GlcNAc
# Summary of the method: as §1
# [13] = target: Gal(b1-4)GlcNAc(b1-3)Gal(b1-4)GlcNAc(b1-3)Gal(b1-4)GlcNAc(b1-3)Gal(b1-4)GlcNAc(b1-2)[Gal(b1-4)GlcNAc(b1-3)Gal(b1-4)GlcNAc(b1-3)Gal(b1-4)GlcNAc(b1-3)Gal(b1-4)GlcNAc(b1-6)]Man(a1-6)[Gal(b1-4)GlcNAc(b1-3)Gal(b1-4)GlcNAc(b1-3)Gal(b1-4)GlcNAc(b1-3)Gal(b1-4)GlcNAc(b1-2)Man(a1-3)]Man(b1-4)GlcNAc(b1-4)[Fuc(a1-6)]GlcNAc
# Summary of the method: as §1
# [14] = target: Gal(b1-4)GlcNAc(b1-3)Gal(b1-4)GlcNAc(b1-3)Gal(b1-4)GlcNAc(b1-3)Gal(b1-4)GlcNAc(b1-3)Gal(b1-4)GlcNAc(b1-2)Man(a1-3)[Gal(b1-4)GlcNAc(b1-3)Gal(b1-4)GlcNAc(b1-3)Gal(b1-4)GlcNAc(b1-3)Gal(b1-4)GlcNAc(b1-3)Gal(b1-4)GlcNAc(b1-2)Man(a1-6)]Man(b1-4)GlcNAc(b1-4)GlcNAc
# Summary of the method: as §1
# [15] = target: Gal(b1-4)GlcNAc(b1-3)Gal(b1-4)GlcNAc(b1-3)Gal(b1-4)GlcNAc(b1-3)Gal(b1-4)GlcNAc(b1-3)Gal(b1-4)GlcNAc(b1-2)Man(a1-3)[Gal(b1-4)GlcNAc(b1-3)Gal(b1-4)GlcNAc(b1-3)Gal(b1-4)GlcNAc(b1-3)Gal(b1-4)GlcNAc(b1-3)Gal(b1-4)GlcNAc(b1-2)Man(a1-6)]Man(b1-4)GlcNAc(b1-4)[Fuc(a1-6)]GlcNAc
# Summary of the method: as §1
# [16] = target: Gal(b1-4)GlcNAc(b1-3)Gal(b1-4)GlcNAc(b1-3)Gal(b1-4)GlcNAc(b1-3)Gal(b1-4)GlcNAc(b1-3)Gal(b1-4)GlcNAc(b1-2)[Gal(b1-4)GlcNAc(b1-3)Gal(b1-4)GlcNAc(b1-3)Gal(b1-4)GlcNAc(b1-3)Gal(b1-4)GlcNAc(b1-3)Gal(b1-4)GlcNAc(b1-6)]Man(a1-6)[Gal(b1-4)GlcNAc(b1-3)Gal(b1-4)GlcNAc(b1-3)Gal(b1-4)GlcNAc(b1-3)Gal(b1-4)GlcNAc(b1-3)Gal(b1-4)GlcNAc(b1-2)Man(a1-3)]Man(b1-4)GlcNAc(b1-4)[Fuc(a1-6)]GlcNAc
# Summary of the method: as §1
# [17] = target: Gal(b1-4)GlcNAc(b1-3)Gal(b1-4)GlcNAc(b1-3)Gal(b1-4)GlcNAc(b1-3)Gal(b1-4)GlcNAc(b1-3)Gal(b1-4)GlcNAc(b1-3)Gal(b1-4)GlcNAc(b1-2)Man(a1-3)[Gal(b1-4)GlcNAc(b1-3)Gal(b1-4)GlcNAc(b1-3)Gal(b1-4)GlcNAc(b1-3)Gal(b1-4)GlcNAc(b1-3)Gal(b1-4)GlcNAc(b1-3)Gal(b1-4)GlcNAc(b1-2)Man(a1-6)]Man(b1-4)GlcNAc(b1-4)GlcNAc
# Summary of the method: as §1
# [18] = target: Gal(b1-4)GlcNAc(b1-3)Gal(b1-4)GlcNAc(b1-3)GalNAc
# Summary of the method: as §1
# [19] = target: Gal(b1-4)GlcNAc(b1-3)Gal(b1-4)GlcNAc(b1-3)[Gal(b1-4)GlcNAc(b1-3)Gal(b1-4)GlcNAc(b1-6)]GalNAc
# Summary of the method: as §1
binder,measurement,setting,value
B1,glycan array binding signal (z-score),[1],0.79
same,glycan array binding signal (z-score),[2],-0.417
same,glycan array binding signal (z-score),[3],0.588
same,glycan array binding signal (z-score),[4],-0.145
same,glycan array binding signal (z-score),[5],-0.302
same,glycan array binding signal (z-score),[6],-0.083
same,glycan array binding signal (z-score),[7],-0.433
same,glycan array binding signal (z-score),[8],0.249
same,glycan array binding signal (z-score),[9],-0.2
same,glycan array binding signal (z-score),[10],-0.11
same,glycan array binding signal (z-score),[11],-0.35
same,glycan array binding signal (z-score),[12],-0.247
same,glycan array binding signal (z-score),[13],-0.229
same,glycan array binding signal (z-score),[14],-0.24
same,glycan array binding signal (z-score),[15],-0.397
same,glycan array binding signal (z-score),[16],-0.254
same,glycan array binding signal (z-score),[17],-0.35
same,glycan array binding signal (z-score),[18],-0.296
same,glycan array binding signal (z-score),[19],-0.115
